Results are given in words; binding and its absence hold for the method and conditions named. For some of these results: In cells and extracts the contact can be indirect. Some results given as binding are weak or reduced against the parent protein; the word gives no strength. For some of these results: Sequences can lack the tags named with a protein.
What was measured:
[1] = target: T1, GL3 (BiFC fusion) (Morus alba L. cv. Hongguo2); assay: split reporter; BiFC with pSPYNE and pSPYCE fusions, as described by Lv et al.
T1 sequence: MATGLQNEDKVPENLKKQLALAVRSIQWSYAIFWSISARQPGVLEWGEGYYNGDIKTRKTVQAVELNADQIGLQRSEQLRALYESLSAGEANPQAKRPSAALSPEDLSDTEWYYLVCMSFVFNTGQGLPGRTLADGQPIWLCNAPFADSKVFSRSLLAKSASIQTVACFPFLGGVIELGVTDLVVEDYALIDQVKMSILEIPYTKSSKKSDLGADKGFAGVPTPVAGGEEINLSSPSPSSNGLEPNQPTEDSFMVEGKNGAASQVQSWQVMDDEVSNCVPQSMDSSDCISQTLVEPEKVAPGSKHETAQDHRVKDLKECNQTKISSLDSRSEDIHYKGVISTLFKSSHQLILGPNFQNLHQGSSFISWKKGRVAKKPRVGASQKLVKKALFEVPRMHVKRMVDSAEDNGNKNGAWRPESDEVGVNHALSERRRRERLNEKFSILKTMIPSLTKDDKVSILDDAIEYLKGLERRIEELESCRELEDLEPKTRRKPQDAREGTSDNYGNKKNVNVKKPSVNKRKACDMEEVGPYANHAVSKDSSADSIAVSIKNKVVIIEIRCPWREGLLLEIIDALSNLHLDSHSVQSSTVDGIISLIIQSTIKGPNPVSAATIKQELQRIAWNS

Amino acid sequences for entries named in this document (tags omitted).
UniProt A0A7G3WX91: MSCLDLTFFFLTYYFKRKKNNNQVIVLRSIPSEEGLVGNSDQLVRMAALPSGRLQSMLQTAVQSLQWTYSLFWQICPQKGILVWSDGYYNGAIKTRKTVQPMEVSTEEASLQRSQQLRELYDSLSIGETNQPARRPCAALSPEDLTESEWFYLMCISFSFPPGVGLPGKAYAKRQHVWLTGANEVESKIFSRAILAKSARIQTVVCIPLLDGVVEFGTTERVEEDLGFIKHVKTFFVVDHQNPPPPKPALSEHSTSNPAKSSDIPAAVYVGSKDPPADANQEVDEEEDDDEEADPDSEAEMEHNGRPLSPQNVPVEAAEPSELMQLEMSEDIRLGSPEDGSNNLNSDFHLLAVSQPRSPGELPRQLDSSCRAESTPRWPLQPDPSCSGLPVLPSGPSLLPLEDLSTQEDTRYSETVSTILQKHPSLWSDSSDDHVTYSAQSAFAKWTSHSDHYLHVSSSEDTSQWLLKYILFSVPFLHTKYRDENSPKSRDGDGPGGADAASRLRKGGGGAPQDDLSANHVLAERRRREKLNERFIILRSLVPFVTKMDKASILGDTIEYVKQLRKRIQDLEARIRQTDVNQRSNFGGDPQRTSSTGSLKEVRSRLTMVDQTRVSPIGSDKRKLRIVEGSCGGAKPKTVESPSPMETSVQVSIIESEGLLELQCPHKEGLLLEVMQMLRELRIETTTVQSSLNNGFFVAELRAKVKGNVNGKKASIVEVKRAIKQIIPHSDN
UniProt A0A7G3WX88: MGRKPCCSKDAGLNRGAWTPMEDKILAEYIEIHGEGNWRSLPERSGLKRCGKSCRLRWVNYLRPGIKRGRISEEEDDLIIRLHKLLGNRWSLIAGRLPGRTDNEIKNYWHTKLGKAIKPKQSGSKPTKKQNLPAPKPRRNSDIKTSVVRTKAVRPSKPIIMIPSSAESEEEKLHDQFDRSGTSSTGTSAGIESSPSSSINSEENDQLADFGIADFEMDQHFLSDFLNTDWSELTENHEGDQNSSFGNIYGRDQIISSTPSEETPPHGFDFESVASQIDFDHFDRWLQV
UniProt A0A7G3WX89: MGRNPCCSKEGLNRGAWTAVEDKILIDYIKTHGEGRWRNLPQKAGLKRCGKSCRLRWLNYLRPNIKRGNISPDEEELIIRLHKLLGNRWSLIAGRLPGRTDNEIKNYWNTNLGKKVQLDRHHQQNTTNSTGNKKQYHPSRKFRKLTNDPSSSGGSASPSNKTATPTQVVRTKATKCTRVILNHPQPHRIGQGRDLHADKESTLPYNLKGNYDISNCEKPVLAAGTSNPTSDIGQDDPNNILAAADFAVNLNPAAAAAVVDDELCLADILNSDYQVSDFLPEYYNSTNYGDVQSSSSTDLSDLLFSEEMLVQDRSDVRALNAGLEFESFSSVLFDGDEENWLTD
UniProt A0A7G3WX94: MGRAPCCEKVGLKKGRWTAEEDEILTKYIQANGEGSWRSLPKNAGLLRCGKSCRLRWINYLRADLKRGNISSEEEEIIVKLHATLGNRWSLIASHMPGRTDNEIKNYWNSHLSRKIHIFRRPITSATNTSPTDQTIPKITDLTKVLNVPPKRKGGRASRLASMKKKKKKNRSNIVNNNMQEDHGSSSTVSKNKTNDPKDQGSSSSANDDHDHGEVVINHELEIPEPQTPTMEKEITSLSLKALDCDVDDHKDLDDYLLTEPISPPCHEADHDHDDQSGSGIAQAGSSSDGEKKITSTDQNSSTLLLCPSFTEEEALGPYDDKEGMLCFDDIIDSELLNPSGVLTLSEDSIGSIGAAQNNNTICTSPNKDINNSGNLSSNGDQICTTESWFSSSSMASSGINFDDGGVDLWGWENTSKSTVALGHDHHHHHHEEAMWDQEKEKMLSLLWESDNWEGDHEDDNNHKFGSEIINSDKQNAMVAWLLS
UniProt A0A7G3WX95: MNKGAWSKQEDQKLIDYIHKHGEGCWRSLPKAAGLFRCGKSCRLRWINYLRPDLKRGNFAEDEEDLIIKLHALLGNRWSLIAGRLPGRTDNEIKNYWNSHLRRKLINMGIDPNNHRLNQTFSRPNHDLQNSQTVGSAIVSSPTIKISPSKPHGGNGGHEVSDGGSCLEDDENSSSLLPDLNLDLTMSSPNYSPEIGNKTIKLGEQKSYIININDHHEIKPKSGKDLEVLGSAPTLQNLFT

[2] = target: T2, TTG1 (BiFC fusion) (Morus alba L. cv. Hongguo2); assay: as above
T2 sequence: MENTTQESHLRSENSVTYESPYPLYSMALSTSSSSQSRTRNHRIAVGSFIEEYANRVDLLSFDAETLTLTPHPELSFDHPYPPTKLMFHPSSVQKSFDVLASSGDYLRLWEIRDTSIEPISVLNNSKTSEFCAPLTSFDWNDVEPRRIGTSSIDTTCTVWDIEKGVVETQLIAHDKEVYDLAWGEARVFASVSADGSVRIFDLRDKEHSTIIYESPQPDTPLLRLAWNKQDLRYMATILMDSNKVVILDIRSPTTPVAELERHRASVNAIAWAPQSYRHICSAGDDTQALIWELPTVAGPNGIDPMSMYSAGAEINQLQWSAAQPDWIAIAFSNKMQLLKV

[3] = target: bHLH3 (BiFC fusion) (Morus alba L. cv. Hongguo2); assay: as above
[4] = target: T3, TTG1 in pBridge MCS I (yeast three-hybrid bait) (Morus alba L. cv. Hongguo2); assay: yeast three-hybrid; Y2HGold; TTG1 in pBridge MCS I, bHLH3 in pBridge MCS II, MYB in pGADT7; SC-Leu-Trp-Met-His medium with 0 and 30 mM 3-AT
T3 sequence: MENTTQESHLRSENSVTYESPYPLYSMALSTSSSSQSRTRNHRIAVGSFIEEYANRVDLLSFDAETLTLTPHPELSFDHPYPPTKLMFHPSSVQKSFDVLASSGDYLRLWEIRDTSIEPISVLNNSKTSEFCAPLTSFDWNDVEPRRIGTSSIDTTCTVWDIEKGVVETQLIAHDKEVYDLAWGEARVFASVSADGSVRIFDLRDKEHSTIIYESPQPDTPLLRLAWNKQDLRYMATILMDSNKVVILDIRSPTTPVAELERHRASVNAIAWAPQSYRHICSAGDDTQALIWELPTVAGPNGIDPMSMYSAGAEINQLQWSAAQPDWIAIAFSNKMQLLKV

[5] = target: T4, GL3 (yeast two-hybrid fusion) (Morus alba L. cv. Hongguo2); assay: two-hybrid; yeast two-hybrid with pGADT7 and pGBKT7 fusions; SD-Trp-Leu-His-Ade+(X-a-Gal) medium
T4 sequence: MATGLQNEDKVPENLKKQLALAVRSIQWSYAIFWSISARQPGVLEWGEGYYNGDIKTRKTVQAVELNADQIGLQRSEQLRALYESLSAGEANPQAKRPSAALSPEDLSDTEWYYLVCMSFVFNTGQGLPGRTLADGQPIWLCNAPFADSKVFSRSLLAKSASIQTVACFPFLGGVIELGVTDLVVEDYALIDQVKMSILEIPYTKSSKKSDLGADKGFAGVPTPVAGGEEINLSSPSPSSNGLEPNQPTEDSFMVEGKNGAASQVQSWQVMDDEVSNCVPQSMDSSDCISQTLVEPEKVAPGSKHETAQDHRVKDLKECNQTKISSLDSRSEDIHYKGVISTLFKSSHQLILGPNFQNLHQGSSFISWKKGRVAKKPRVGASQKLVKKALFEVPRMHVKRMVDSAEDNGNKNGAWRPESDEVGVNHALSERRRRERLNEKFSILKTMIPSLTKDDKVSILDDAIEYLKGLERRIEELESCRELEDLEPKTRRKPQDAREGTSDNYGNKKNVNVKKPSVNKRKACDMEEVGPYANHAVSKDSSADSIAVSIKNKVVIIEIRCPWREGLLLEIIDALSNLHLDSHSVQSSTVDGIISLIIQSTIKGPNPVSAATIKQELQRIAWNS

[6] = target: T5, TTG1 (yeast two-hybrid fusion) (Morus alba L. cv. Hongguo2); assay: as above
T5 sequence: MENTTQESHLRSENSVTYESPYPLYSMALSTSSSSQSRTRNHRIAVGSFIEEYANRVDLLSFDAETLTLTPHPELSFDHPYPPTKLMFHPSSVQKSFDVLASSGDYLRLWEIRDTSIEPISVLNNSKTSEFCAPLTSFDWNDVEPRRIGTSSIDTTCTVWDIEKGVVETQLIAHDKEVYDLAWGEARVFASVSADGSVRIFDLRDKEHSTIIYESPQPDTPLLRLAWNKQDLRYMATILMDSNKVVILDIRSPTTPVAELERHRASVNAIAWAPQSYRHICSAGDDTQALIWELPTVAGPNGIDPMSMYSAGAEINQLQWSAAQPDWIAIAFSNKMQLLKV

[7] = target: bHLH3 (yeast two-hybrid fusion) (Morus alba L. cv. Hongguo2); assay: as above
[8] = target: T6, TTG1-NLuc (Morus alba L. cv. Hongguo2); assay: split reporter; split luciferase complementation in Nicotiana benthamiana leaves (pCambia1300nLUC / pCambia1300cLUC), firefly luciferase activity 3 days after infiltration
T6 sequence: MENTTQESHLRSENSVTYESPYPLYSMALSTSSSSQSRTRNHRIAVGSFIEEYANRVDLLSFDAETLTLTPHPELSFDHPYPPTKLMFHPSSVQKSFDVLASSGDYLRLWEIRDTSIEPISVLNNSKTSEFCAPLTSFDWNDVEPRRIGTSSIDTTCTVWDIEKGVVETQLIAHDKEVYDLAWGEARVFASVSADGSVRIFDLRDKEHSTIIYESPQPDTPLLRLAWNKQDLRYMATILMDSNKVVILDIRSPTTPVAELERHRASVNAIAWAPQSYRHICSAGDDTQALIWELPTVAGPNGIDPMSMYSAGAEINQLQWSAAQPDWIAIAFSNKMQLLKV

Row | Substance | binding [1] | binding [2] | binding [3] | binding [6] | other results
1 | bHLH3 in pBridge MCS II (yeast three-hybrid bridge) (from UniProt A0A7G3WX91 1-732) | – | – | – | – | binding [4]: binds
2 | TT2L2 (BiFC fusion) (from UniProt A0A7G3WX88 1-288) | binds | no binding | binds | – | –
3 | bHLH3 (BiFC fusion) (from UniProt A0A7G3WX91 1-732) | – | binds | – | – | –
4 | TT2L1 (yeast two-hybrid fusion) (from UniProt A0A7G3WX89 1-343) | – | – | – | no binding | binding [5]: binds; binding [7]: binds
5 | MYBF (yeast two-hybrid fusion) (from UniProt A0A7G3WX94 1-484) | – | – | – | no binding | binding [5]: no binding; binding [7]: no binding
6 | CLuc-bHLH3 (from UniProt A0A7G3WX91 1-732) | – | – | – | – | binding [8]: binds

More lines, main results first:

Row | binding [1] | binding [2] | binding [3] | binding [6] | Substance | other results
7 | binds | no binding | binds | – | TT2L1 (BiFC fusion) (from UniProt A0A7G3WX89 1-343) | –
8 | binds | binds | binds | – | MYB4 (BiFC fusion) (from UniProt A0A7G3WX95 1-240) | –
9 | – | – | – | binds | bHLH3 (yeast two-hybrid fusion) (from UniProt A0A7G3WX91 1-732) | –
